The other results are listed elsewhere or left out. At the low end of the ranking the order means little. Measured with an extract: partners may take part in the binding.
These sequences were tested against T1, HNF4alpha8 (COS-7 nuclear extract) (UniProt P41235-5) (assay: protein-binding microarray). Details: COS-7 nuclear extract on double-stranded Agilent 4x180k PBM; binding buffer, salt, pH and temperature not given; high values mean tight binding; double strand, one strand shown; sequences stand for … in …GCCTAGGGAGATTAGAGTATCGGTCGA.
T1 sequence: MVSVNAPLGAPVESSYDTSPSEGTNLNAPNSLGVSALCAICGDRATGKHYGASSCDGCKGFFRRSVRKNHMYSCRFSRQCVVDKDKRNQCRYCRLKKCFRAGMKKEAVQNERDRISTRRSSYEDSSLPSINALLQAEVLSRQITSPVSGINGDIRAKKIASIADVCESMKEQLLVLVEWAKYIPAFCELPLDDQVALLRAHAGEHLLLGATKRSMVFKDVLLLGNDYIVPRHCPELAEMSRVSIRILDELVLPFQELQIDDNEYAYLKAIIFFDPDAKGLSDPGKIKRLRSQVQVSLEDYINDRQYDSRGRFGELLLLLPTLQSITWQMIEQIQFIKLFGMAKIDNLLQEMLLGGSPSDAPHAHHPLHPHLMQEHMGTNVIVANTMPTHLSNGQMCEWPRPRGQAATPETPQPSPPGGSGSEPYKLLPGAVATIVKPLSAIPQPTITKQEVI

| Sequence | binding signal (log2 normalized intensity) |
| --- | --- |
| GCCGACTTACAGGACAAAAGTAAATATGGT | -0.745 |
| ATTTTGTCACCTACATGTGAGAGAGGCTTA | -1.38 |
| CCCAGTATGGTCTCAGTAATGACATGCAGT | 0.868 |
| TTTCACTGCCTATCTCCTATGAGCCAAACA | -1.44 |
| TTAGCCAGGATCAGATTTGATAGCTGGGCT | -1.26 |
| CGCTCCGCGAGGTGAGCCATTGGCTGGGGT | 0.233 |
| TATAGTGCTCCCTCCTGTGGTAATAAGTTG | 1.43 |
| ATAGACATGACTTACTTGGCATCATCAAAC | -0.766 |
| AGCTAATCTGACCAAGTGAACTGTGACCTG | 5.12 |
| ATTGGCAGGCATTCCACACTGCAGGCTCTG | -1.29 |
| GGCATTGGAGATATGATAGCTGACAAGCAA | -1.37 |
| AAAATTCCCCAGGAGGAGATAAGATCAGTA | -0.434 |
| GGATCAGAGACACGATGTTCTTGCCAAGTC | -0.451 |
| ATCTTACAGGCTTATACGTGGAAGAAACTC | 0.569 |
| CCCTCCCTCTTCCCTCATATAATTTACATA | 1.83 |
| GAAAGTAAGTGCACAGCCAGAACTGAGCCC | -1.28 |
| CATCAAATCCTCGGAAGACGCACCTCTGCA | -1.35 |
| TTCTTGGGCAAGAAAGGGGTCAGCAAAAAT | 1.8 |
| GTCAGCCCTGCCATCTTGTGGCCATGCTTA | -1.18 |
| AGAAGTGAAAAGTCGTTTTCAGTGTTTCTT | 0.838 |
| GACAAATCTGTGTTGGAGTTCTAAGAGCCT | -1.16 |
| TCTTTGCACTTGATGTTCCCCCTCCCTGGA | 4.84 |
| ACTTTGGTCTTATTACTAAGTGAGAAAAGA | 0.36 |
| CCCCTCCCTCCGCAACCTTTACTCCTTGTG | 4.08 |
| AATGGCTCCACCAGTCAGTCAGTGAGACGT | -1.31 |

| Sequence | binding signal (log2 normalized intensity) |
| --- | --- |
| CCTTTTTGGAATGTGTTTGCATGACTCATA | 1.5 |
| ATGAAGTCAAACAAAAGAAAATGTGCCCTT | 2.86 |
| TGTACCCAGCACTGTCAGCAGGGGGATCCA | -1.32 |
| AGTTTGCCACGGTCAGCAATGTGGACTTTG | 6.83 |
| ATCACACAGACAGACATTCAGAAACTGTCA | -1.38 |
| ACGCACAGAGGCCCCTGATGTGATGTAATC | 0.194 |
| CTTATTTGCATGAAGCACAAAGGTTACTTG | 3.59 |
| CTGTACACTTACAAGTGTACAAAGGTCACT | 8.53 |
| AACTTTATCAAGACTGCAGCCAGGGGCGTA | -1.34 |
| AAGCATAACTGTATAACCTGGAACTGAAAG | -1.11 |
| CGCGCAGCCAATAGGCGAGGACGCAGTCCC | -1.31 |
| AAGGTGTATGTGGACTTTCAACTGCAGGGG | 4.4 |
| ACTTAGAATTTCATTTTGCTCTTTGTTCAG | 3.43 |
| TTCCGGATAGCCAAATAGCCTGGTCACTCA | -1.36 |
| CTGATGCCCTTTGGATTTAGGCAGTTTTTG | 2.92 |
| AAATATTTGGTGAATAAACAAATAATGGCT | -1.33 |
| ACCCGGCAGGCGGGAAAGAAGGCTGGTTTA | -1.3 |
| CCTCCATTTCACAAATGAGGGGACAAAGTT | 1.42 |
| TGGAATTTGCAAGTGGAGATTTCAGCCGCT | -1.42 |
| AGGCCCTCGGCATCATGCCCTTTGGCCCCC | 7.71 |
| CCTGCAGGTGAAACTCCAGGCTCCAAGGGT | -1.34 |
| TGTTTCAGAGTAGCCTATCAGAAGAATCTG | -1.3 |
| CAAACAAAAGGGACAAAGGTGAGTGCAACC | 2.01 |
| ACCTGCTTGTTTTCCCAACAGGTGTTAAAA | 0.171 |
| GATTACCTAAACAGCAACTGTAGTGCATAG | -1.23 |

| Sequence | binding signal (log2 normalized intensity) |
| --- | --- |
| TCACTGGTGATGTGAACCTCGATCCCTGGC | 3.71 |
| CATCTGTCATTCCCTCACTCTAGAACCTTC | 0.388 |
| ATGCATGTCCCTCCTCAACCTCTCCAATGC | 1.1 |
| CTGTGAAGACTGCAGCAAAGTCCTCCAACT | -1.35 |
| CTCCTGCTATCAGTACTGAAACATGCCTAT | 0.0532 |
| ACAAAATTAAGTGATTTGCCCAATATAATA | -1.27 |
| CCCTCTCCCCACCATTAACCCTACAGTCCT | 3.24 |
| TCTCAGGTTGTGTTTGCAGTGAGTAACCTT | 2.32 |
| ATCAGCATGGCTGCAGAGAACAGCAGCTAT | -1.09 |
| TAATTGCTTGTTGGTTCAAGAGAAATGTTA | 1.58 |
| TGGAATAGATCAGCTTTCAACACTCTGGAT | -1.3 |
| ATCCTAGTCTTTGCCCCACTGCAAGTTGAC | 2.63 |
| AAGGCAAACACTCAAGGTCCAAACAGGGTA | 0.664 |
| GACAGCTGGGCCCTGCCTGACCTGCCCTTT | 5.01 |
| AGCCTCACTTGCTGATAAGGCAGACCAGGG | -1.3 |
| CCAAATCTAGCATCAGTGAGTCAAGAGATA | -1.2 |
| TCAAGATTTTACCTACTTCCTTTATTCACT | -1.3 |
| TATTAGGCATTTCATTTGCCCAGCTGTTCC | 0.945 |
| TGGCCACTCCCTGATAGAGAACAAGGTTCC | -1.17 |
| ACAGATAGCATAATCAAAGAGAAAAACATT | -1.38 |
| TTTTGCAACATGAGGAGCCAAGTTTTGCAA | -1.38 |
| CGAGCGCTGCTTCTCGTCCCCGCCCGAGCC | 3.3 |
| TCCCAATCTCTGTGGGAGGGAAGGAGCCTA | -1.3 |
| ACCCAGGTGTGTTGCAACTTTGACTATAGC | 0.342 |
| GGGCTTCAGGGTAAATCCCGTCCCTGCCAA | 0.541 |

| Sequence | binding signal (log2 normalized intensity) |
| --- | --- |
| CCACAGATGATCAAAGGTCAGTCTTAGGAC | 5.58 |
| CCGCGGCGGGCCCTCGACCTTTGCCCTCCA | 9.76 |
| ACGCCAGCAGCAGGGTCAGAAGGGAGGTAG | -1.34 |
| TATTTCACCCCAGCAAACAGGTCCTGCTGG | -1.22 |
| TCAATTATCACCACACAGCACGTAATAGTT | -0.1 |
| AACAGCACAAGCAATGGCTGGGTCTAAGGG | -0.936 |
| ATTTCTGAGAGAGAAAGAGACAGAGAGAGA | -1.41 |
| GCAAAGATCACCTGGTGGCCATCAAGCAGA | -1.36 |
| GACCTTCGGCCTCAATTATAACTCATGTTC | 3.98 |
| TGGACTTTCAACTGCAGGGGGGTGGGCACC | 2.19 |
| AATCTGGCTGCAGAGTCCAAGATGCTGTCT | 1.82 |
| AGAGCAAAGGTTACTGCAGAGAAGAAGCTT | 1.46 |
| TCTTGCTTCGCTCTCTTCTGGTGATCAAAC | -0.074 |
| GCTGGGTATACTGACTAGGACAGAGCAGAT | -1.02 |
| GGGTAGGCAGACAGGTTGGAGACGCAGAGA | -1.22 |
| CGAGCTGAGGCCAGACAGGGGGGCGCCTAC | -1.25 |
| GTCAGGGCTAGGCTGATAAGGAGGGTAACA | -1.32 |
| ACTTCAGCCTTTGAGAAGCAGGAGCATGGG | -1.36 |
| GTCTCTGCTCCTAAAATTATGCCATTCTTT | -0.139 |
| GAAGTCCAGTAGCTCAATCAAGGTTCACTG | 2.02 |
| GAGTTATTTCATAGACTGTCCCTCAGTGTG | 1.89 |
| ACAGAGGCAGTGGGACAATGAAGCCTAAAT | -1.27 |
| TCTTTCCACTTGGGCTTCCTCATCTGTTTA | 1.27 |
| GGAATGCAGTGGCGCAATCTCAGCTCAATC | -1.36 |
| CCCTTTTTCTGTAAAGCTTTATTTTGGGGC | 1.31 |

| Sequence | binding signal (log2 normalized intensity) |
| --- | --- |
| AGATTGCCACCTTGGTGAGAGATTAAACAT | -0.649 |
| AAGGAGGCAGTAAGATAAGGAGGTAGAGTC | -1.33 |
| GCCACTGAACTTTCACTGCCTATCTCCTAT | 0.18 |
| CCTGACATTCTTGAGCTGCTAAACCAACAC | -1.17 |
| AGCATATTTGGCCACATCCTGTCTCCTTTA | 1.11 |
| CCCTGTTTAGAATTCTGCCTCCCCCACCCC | 6.24 |
| TCCCAGATGCTGACCATATTCCAAATTCCA | 0.564 |
| CAAACCGAGATCAAGGGACAGAGATAACTG | -1.36 |
| GTGGCCTTTGTCCTAGTGCATGCTGGGAGT | 1.55 |
| GAATCTGGACAGTGTAAGATAAAAATCAGA | -1.33 |
| CCAAGCAGTGATATTCTCTCGTCACCTCCA | -1.39 |
| CTCCACTGGGAATGACATTTTGGACTACTT | 2 |
| CATTCAGATAAATGGTGTAGAGGCCAGAGG | -0.495 |
| TTCCCTCCCTCCCAGTACAAAGTTCACTTT | 7.26 |
| TGCCCTTTGCCTGGTGATCTTTGTTAGACC | 3.02 |
| AGAAGCCACTGCGACCTTTGCCCTCCCTAA | 8.33 |
| AAGGCAAGGGTCAAGATGTCTCAAGATATC | 1.06 |
| ATAAGAAGGGGTCAGACCAGACAGCACCTC | -1.25 |
| ATGGTGCCTATTTGTCCCTGACCAAACTCA | -1.29 |
| TTAAAGTGCCATTGAGATGGTAACCACACC | -0.775 |
| TCTGTGTGTATGTGTGTGTACACATTGATA | 2.49 |
| CAGCTTCAGGAGCTGCAGGGAAGCCCCTGC | -1.03 |
| ATGTGGTCAAAACTTTGTTTGAGTTCCAAA | 1.01 |
| ATAGAAAGCCTTTGAACTGTGTTGCAAATT | 1.65 |
| GGTCAAGAGGGACAAAATGCCCAGGATTCC | -1.35 |

| Sequence | binding signal (log2 normalized intensity) |
| --- | --- |
| GTGAATGACCCCTCCCCTCCCCCTTGGTGT | 5.83 |
| ACACAGGATTGAACCTCTGGAATTCATCTC | 0.885 |
| AACTCAAAGATTCTTAGAGAGTTGGGCAAG | -1.45 |
| CAAACACGGACAGGCAGGCCCAGACATGTC | -1.07 |
| GGATTTCCGTAACCTCACAGAAATCCAAAG | -1.12 |
| ATCAGAGCATGCATACGTGAAAGTAAAGAG | -0.959 |
| AGCTGTGCGGTAGGCATTGAGGCAGCCAGC | -1.14 |
| TAACTCAAACATCTGACAGAGATAAGGAAG | -1.28 |
| CTTTAAGGTCACATAGCAGGCATACCAGGC | -0.87 |
| AATGAGATCTCCCCACATTCCAACACAGGG | 0.464 |
| CTTGTCCAACTCCCCTCCCAAGGCAGCAAT | 4.39 |
| ACAAAGATCCCTTATTTGCATGAAGCACAA | -1.17 |
| GAGTACATGCCTCTCCCAGTGGAATGCAAA | -0.435 |
| TTCATCTGGGACGTGGCTCAAGATTACAGG | -1.04 |
| ATTCACTTTTTGGCCTTTGGCTGTTCGATG | 2.69 |
| GTTTCGCAAGGACGTGACCTTTATGGGAAA | 3.65 |
| ATGGTTTACCATATTTACTTATGGTTTGAC | 1.38 |
| TCATGATTAGATTGAAGTTACGTATTTTTG | 1.37 |
| CATTCCTTAACATGGTTTGCAAGACCTCTG | 1.16 |
| TAATACAAGAGGCTTCTTATCAGCAGCTGG | -1.26 |
